# From the supplement of paper PMC12217912
# Some of the results follow. Sequences were assembled here from the parent chain. Values near 0.05 are background.
# B1: TEV protease; numbered along this chain (parent)
# chain: MGESLFKGPRDYNPISSSICHLTNESDGHTTSLYGIGFGPFIITNKHLFRRNNGTLVVQSLHGVFKVKDTTTLQQHLVDGRDMIIIRMPKDFPPFPQKLKFREPQREERICLVTTNFQTKSMSSMVSDTSCTFPSGDGIFWKHWIQTKDGQCGSPLVSTRDGFIVGIHSASNFTNTNNYFTSVPKNFMELLTNQEAQQWVSGWRLNADSVLWGGHKVFMVKPEEPFQPVKEATQL
# Variants of: B1
# Test: raw area under fraction-flipped curve 0-4 h after induction (AUC4h, not background-subtracted), DNA-recorder readout of cleavage of the substrate (dimensionless); higher = more cleavage of the substrate by the protease variant
# Details: temperature: 34 °C; time window: 0-4 h after rhamnose induction
# Procedure: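 In vivo DNA recorder in E. coli TOP10(DE3) ΔrhaA at 34 °C. Each TEVp single-site mutant (parent TEVp 0) is paired with a single-site variant of the 7-mer TEVs (canonical ENLYFQ|S). The substrate sits between flexible linkers in a Bxb1-sfGFP-TEVs-SsrA fusion, so cleavage stabilises Bxb1 and speeds flipping of a recombination array, read by NGS. The value is the raw area under the fraction-flipped curve over 0-4 h after rhamnose induction (AUC4h), with ≥20 reads per time point. It is not background-subtracted; inactive controls average about 0.047.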
# 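Note: Bxb1 expression induced with 0.2% (w/v) L-rhamnose at OD600 near 0.5, cultures sampled hourly, flipped fraction per protease–substrate barcode pair counted by paired-end Illumina sequencing.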
Variant,area with substrate EALYFQS,area with substrate ECLYFQS,area with substrate EDLYFQS,area with substrate EFLYFQS,area with substrate EHLYFQS,area with substrate EILYFQS,area with substrate EKLYFQS,area with substrate ELLYFQS,area with substrate EMLYFQS,area with substrate EPLYFQS,area with substrate EQLYFQS,area with substrate ERLYFQS,area with substrate ESLYFQS,area with substrate EVLYFQS,area with substrate EYLYFQS,area with substrate EELYFQS,area with substrate EGLYFQS,area with substrate EWLYFQS,area with substrate ETLYFQS
K216G,0.0822,0.0631,0.0598,0.0643,0.0552,0.0325,0.0598,0.0585,0.0776,0.0751,0.0686,0.0654,0.0785,0.0694,0.0757,–,–,–,–
K216H,0.124,0.0778,0.125,0.11,–,0.0812,0.109,–,0.155,–,0.116,0.124,0.102,0.0927,–,0.107,0.0798,0.0712,–
K216Q,0.124,0.0781,–,–,0.148,–,0.126,–,–,–,0.0923,–,0.115,0.125,–,–,–,0.0903,–
K216S,0.102,0.1,–,–,–,0.0717,–,–,–,–,–,0.0926,0.114,0.0699,–,–,–,–,–
V220R,0.118,0.107,0.146,0.0977,0.0715,0.0738,0.106,–,0.103,–,0.126,0.101,0.118,0.0943,–,0.111,0.111,0.0993,0.104
K221R,0.114,0.0978,0.114,0.0904,0.0982,0.0854,0.12,0.0885,0.113,–,0.135,0.0989,0.0997,0.0878,0.0979,0.119,0.112,0.0988,–
P222H,0.096,0.0737,0.128,0.0946,–,0.0963,0.0884,–,0.0893,–,–,0.0698,0.0978,–,–,0.12,0.0538,0.0965,–
E224A,0.109,0.0783,–,–,–,0.0737,0.0979,–,0.0838,0.0782,0.144,0.0829,0.0935,0.0805,–,0.122,0.116,–,–
E224C,0.146,0.112,0.108,0.102,0.0935,0.0831,0.0988,0.088,0.111,0.111,0.0965,0.101,0.0846,0.0869,0.118,0.12,–,0.0896,0.121
E224H,0.13,–,0.136,0.12,0.105,0.0939,0.0982,–,–,0.135,–,0.0717,0.0899,0.0909,–,0.0997,0.082,0.0958,0.0987
E224K,0.113,0.0782,0.115,–,0.104,0.0869,0.0965,0.0692,0.123,–,0.117,–,0.0884,0.0908,0.0788,–,0.0774,0.0983,–
E224N,0.147,0.098,0.0958,–,0.0998,0.102,0.073,0.055,0.0673,0.0497,0.0979,0.134,0.108,0.0587,0.099,0.111,–,0.0677,–
E224R,0.0553,–,–,0.104,–,0.0666,0.0876,0.0812,–,–,0.102,–,0.0969,0.0885,–,–,0.102,0.0981,–
